Data from PubChem BioAssay AID360 (National Center for Advancing Translational Sciences (NCATS), 2006).
Hit rate of the full screen: of about 48,000 compounds, about 550 (1.1%) were called active. Roughly 4% stayed inconclusive and do not appear here. Rule as the data show it: active = potency below about 15 µM; inconclusive = mostly about 16 µM to 33 µM; inactive = weaker than that. This is one part of the list.

These compounds were tested against Lysosomal acid glucosylceramidase (Homo sapiens) (UniProt P04062) (assay: Glucocerebrosidase). Conditions: purified enzyme, resorufin glucoside fluorescence (screen aimed at inhibitors), 20 min.
Procedure, shortened: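 Normal human glucocerebrosidase (0.2 nM final) was assayed with resorufin β-D-glucopyranoside (30 uM final) in 50mM citric acid/KH2PO4, 10mM sodium taurocholate, 0.01% tween-20, pH 5.9. Compounds were titrated; fluorescence (Ex 548, Em 600) read after 20 min at RT.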
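Also: the screen sought inhibitors.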
Potency is read from the fitted curve at half-maximal effect.

UniProt P04062, sequence (P04062 whole entry, looked up): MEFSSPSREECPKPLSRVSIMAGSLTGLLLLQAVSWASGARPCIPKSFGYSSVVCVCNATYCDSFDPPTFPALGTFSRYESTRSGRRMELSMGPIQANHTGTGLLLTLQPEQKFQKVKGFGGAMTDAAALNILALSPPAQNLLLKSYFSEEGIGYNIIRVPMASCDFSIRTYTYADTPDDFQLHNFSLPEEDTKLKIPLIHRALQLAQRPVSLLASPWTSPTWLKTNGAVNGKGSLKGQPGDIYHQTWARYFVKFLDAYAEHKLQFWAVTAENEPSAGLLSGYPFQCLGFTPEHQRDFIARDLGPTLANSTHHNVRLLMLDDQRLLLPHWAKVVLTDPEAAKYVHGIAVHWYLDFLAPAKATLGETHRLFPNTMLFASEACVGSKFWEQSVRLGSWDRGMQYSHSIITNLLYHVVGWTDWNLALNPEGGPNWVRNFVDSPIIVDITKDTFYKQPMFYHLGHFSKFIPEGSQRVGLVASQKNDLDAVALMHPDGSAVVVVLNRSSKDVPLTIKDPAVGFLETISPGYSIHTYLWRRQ

Potency, inactive:
CCOC(=O)C1=C(CS(=O)(=O)c2ccccc2)NC(=O)NC1c1ccccc1 (stereo unspecified) > 76.9 µM
Fc1ccc(-c2nn3c(C4COc5ccccc5O4)nnc3s2)cc1 (stereo unspecified) > 76.9 µM
CC1(C)OC(=O)CC1C(=O)NCc1ccccc1 (stereo unspecified) > 76.9 µM
Cc1noc(C)c1S(=O)(=O)Nc1ccc(C(=O)O)cc1 > 76.9 µM
Cc1onc(-c2ccccc2Cl)c1C(=O)Nc1cc(=O)n(C)c(=O)n1C > 76.9 µM
Cc1ccsc1/C=N/n1cnc2sc(C)c(C)c2c1=O > 76.9 µM
O=C(CCn1c(=O)c2ccccc2n(Cc2cccnc2)c1=O)NCc1ccc2c(c1)OCO2 > 76.9 µM
O=c1c2ccc(-c3nnc4n3-c3ccccc3SC4)cc2nc2n1CCCCC2 > 76.9 µM
CCOc1ccc2[nH]c(=O)c(CN(Cc3ccc(C)cc3)C(=O)N3CCCC3)cc2c1
O=C1CN(C(=O)c2cnccn2)c2ccccc2N1 > 76.9 µM
O=C(CCc1nc2ccccc2[nH]1)Nc1ccc(F)cc1 > 76.9 µM
Cn1c(C(C#N)C(=O)c2sc3ccccc3c2Cl)nc2ccccc21 (stereo unspecified) > 76.9 µM
Cc1cccc2cc(C(c3nnnn3Cc3ccccc3)N3CCN(C)CC3)c(=O)[nH]c12 (stereo unspecified) > 76.9 µM
CCCc1c(O)nc(SCCN(CCC)CCC)[nH]c1=O > 76.9 µM
O=C(O)CCC(=O)Nc1nc(-c2ccccc2)cs1 > 76.9 µM
COc1ccc(C(=O)N(Cc2ccco2)C(C(=O)NC2CCCC2)c2ccc(O)cc2)cc1OC (stereo unspecified) > 76.9 µM
Cc1ccc(Cl)cc1N1CCN(C(c2ccc(C#N)cc2)c2nnnn2C2CCCC2)CC1 (stereo unspecified) > 15.4 µM
Cc1cnc(NC(=O)CSc2nnc(-c3cccs3)n2C)s1 > 76.9 µM
Cc1ccc(Cl)cc1N1CCN(C(=O)C2CCN(S(=O)(=O)c3cccnc3)CC2)CC1 > 76.9 µM
CCCCCCn1c(CN2CCCCC2C)nc2c1c(=O)n(C)c(=O)n2C (stereo unspecified) > 76.9 µM
Cc1csc(NC(=O)CSc2nnc3ncccn23)n1 > 76.9 µM
COc1ccccc1S(=O)(=O)Cc1ccc(C(=O)NCCN2CCCC2)o1 > 76.9 µM
Cc1cc(C(=O)OCC(=O)N2CC(C)CC(C)C2)c(C)o1 (stereo unspecified) > 76.9 µM
COc1ccc(C(=O)NCC2OCCc3ccccc32)c(O)c1 (stereo unspecified) > 76.9 µM
CC(=O)N(C)c1ccc(OCC(O)COc2ccc(N(C)C(C)=O)cc2)cc1 > 76.9 µM
CC(NC(=O)C1C(=O)N(CCO)C2(C)CC1c1ccccc1O2)c1ccccc1 (stereo unspecified) > 76.9 µM
CCc1nnc(NC(=O)C2CCC2)s1 > 76.9 µM
CC(C)N1C(=O)C2C(C(=O)NCc3ccccc3)C3C=CC2(O3)C1C(=O)NC(C)(C)C (stereo unspecified) > 76.9 µM
CC1CCN(C(=O)c2ccc(COc3ccccc3Cl)o2)CC1 > 76.9 µM
COC(=O)CNc1nc(-c2ccncc2)nc2ccccc12 > 76.9 µM
Cc1cc(C(=O)COc2ncnc3sccc23)c(C)n1C1CC1 > 76.9 µM
COc1ccc(-c2noc(-c3ccccc3-c3ccccc3)n2)cc1OC > 76.9 µM
Cc1ccc2nc(-c3ccccn3)oc2c1 > 76.9 µM
CCOC(=O)Cc1csc(SCC(=O)c2c(N)n(CC(C)C)c(=O)n(C)c2=O)n1 > 76.9 µM
O=C(NCc1ccncc1)C12CC3CC(CC(C3)C1)C2 > 76.9 µM
Cc1ccnc2nc(C(=O)OCCOc3cccc(Br)c3)nn12 > 76.9 µM
Nc1nnc(C(=O)c2ccccc2N)s1 > 76.9 µM
C=COCCNC(=O)C1CC(=O)N(c2ccc(C)cc2)C1 (stereo unspecified) > 76.9 µM
CCSc1nnc(-c2ccc(S(=O)(=O)N3CCOCC3)cc2)n1CC1CCCO1 (stereo unspecified) > 76.9 µM
COCc1[nH]nc2c1C1(CCC3(CC1)OCCO3)C(C#N)=C(N)O2 > 76.9 µM
N=c1nc(SCCC(=O)O)ss1 > 76.9 µM
Cc1nnc(SCC(=O)Nc2ncc(Cc3ccc(F)cc3)s2)n1N > 76.9 µM
CCCCNC(=O)OC1CCS(=O)(=O)C1 (stereo unspecified) > 76.9 µM
CN(C)c1ccc(NC(=O)CN2C(=O)CC(c3ccccc3)=Nc3ccccc32)cc1 > 76.9 µM
CN(C(=O)C1CCOC1)c1nnc(-c2cccnc2)s1 (stereo unspecified) > 76.9 µM
CN(C)Cc1nc2c(c(=O)[nH]1)C1(CCCCC1)Cc1ccccc1-2
CCOCCc1nnc(NC(=O)c2cc(OC)c(OC)c(OC)c2)s1 > 76.9 µM
CCOC(=O)CNC(=O)Cn1cnc2sc(C)c(S(=O)(=O)N3CCC(C)CC3)c2c1=O > 76.9 µM
CC(=O)Nc1ccc(S(=O)(=O)N2C3CCCC2CC(NC(=O)C2CCCCC2)C3)cc1 (stereo unspecified) > 76.9 µM
CCOC(=O)c1ccccc1N/C=C1\CCCC1=O > 76.9 µM
COc1ccc(-n2c(SCCC(=O)O)nnc2-c2ccncc2)cc1 > 76.9 µM
CCOC(=O)c1nnn(-c2nonc2N)c1-c1ccc(OC)cc1
Cc1occc1-c1nnc(SCC(=O)c2ccc(F)cc2)n1Cc1ccco1 > 76.9 µM
COc1ccc(OC)c(C(=O)COC(=O)C2CC3CCCC(C2)C3=O)c1 (stereo unspecified) > 76.9 µM
Cc1ccc(CNC(=O)C2C3C=CC(C3)C2C(=O)O)cc1 (stereo unspecified) > 76.9 µM
C=CCn1c(SCC(=O)c2cccs2)nc2sc(C)cc2c1=O > 76.9 µM
CCOC(=O)CC(=O)CSc1ccc2nnc(-c3cccc(F)c3)n2n1 > 76.9 µM
CCCCNC(=O)c1cc2c(=O)n3cccc(C)c3nc2n(Cc2ccccc2)c1=N > 76.9 µM
COC(=O)c1cc(OC)c(OC)cc1NC(=O)Nc1ccc(OC)cc1OC > 76.9 µM
COC(=O)CC(=O)CSc1nc2c(cc1C#N)CCC2 > 76.9 µM
CCN(CC(=O)NC(C)C)C(=O)CCNC(=O)c1ccc(Cl)cc1 > 76.9 µM
Cc1occc1-c1nnc(SCC(=O)N2CCN(c3ccc(F)cc3)CC2)n1C > 76.9 µM
COC(=O)C1=C(C)N(c2ccc(F)c(Cl)c2)C(=O)C1 > 76.9 µM
COc1ccc(NC(=O)CN2CCC(C(N)=O)CC2)cc1
COc1ccc2[nH]c(=O)c(CN(Cc3nnnn3CCc3ccccc3)CC3CCCO3)cc2c1 (stereo unspecified)
COc1ccccc1-c1c(C)oc2cc(OC(=O)c3ccco3)ccc2c1=O > 76.9 µM
CCOc1ccc(C(=O)CCN2CCCCC2)cc1 > 76.9 µM
CC1CN(S(=O)(=O)c2ccc(NC(=O)CCN3C(=O)c4ccccc4C3=O)cc2)CC(C)O1 (stereo unspecified) > 76.9 µM
COC(=O)CC1=Nc2ccccc2NC(=O)C1 > 76.9 µM
CCn1c(SCC(=O)Nc2nc(C)cs2)nnc1-c1ccco1 > 76.9 µM
Cc1cc(=O)oc2n[nH]c(-c3ccccc3)c12 > 76.9 µM
CSc1nnc(-c2sc3cc(Cl)ccc3c2Cl)n1C > 76.9 µM
O=C(CSc1nnnn1-c1cccnc1)NCc1cccs1 > 76.9 µM
CCCCCn1c(N2CCC(C(N)=O)CC2)nc2c1c(=O)[nH]c(=O)n2C > 76.9 µM
COc1ccc(C(=O)NCc2oc(-c3ccccc3)cc2C(=O)O)cc1 > 76.9 µM
COc1cc(C(=O)N(Cc2ccco2)Cc2cc3ccccc3[nH]c2=O)cc(OC)c1OC > 76.9 µM
Cc1nn(Cc2ccccc2)c(C)c1NC(=O)CSc1nnc(-c2cc(Cl)ccc2O)n1C > 76.9 µM
CCCOc1ccc(NC(=O)C2CCCNC2=O)cc1 (stereo unspecified) > 76.9 µM
CC(C)=CC(=O)OCC(=O)Nc1nc(C)c(Cl)cc1Cl > 76.9 µM
CCCSc1nsc(SCCC)c1C(N)=O > 76.9 µM
CCOC(=O)N1CCC(N2Cc3cccc(C(=O)NCc4ccccc4OC)c3C2=O)CC1 > 76.9 µM
CCC(Sc1nc(=O)cc(N)n1-c1cccc(C)c1)C(=O)Nc1cc(C)on1 (stereo unspecified) > 76.9 µM
COC(=O)c1c(-c2ccccc2)csc1NC(=O)c1ccco1 > 76.9 µM
COc1cc(OC)c(C(=O)NC2CCCCCC2)cc1OC > 76.9 µM
O=C(c1ccco1)N1CCN(C(=O)c2ccccc2OC(=O)C23CC4CC(CC(C4)C2)C3)CC1 > 76.9 µM
CCOC(=O)c1cc2c(=O)n3ccccc3nc2n(CCCOC)c1=NC(C)=O > 76.9 µM
COC(=O)c1[nH]c2ccccc2c1NC(=O)CN1CCN(c2cccc(Cl)c2)CC1 > 76.9 µM
CC(=O)c1cc(C#N)c(SCCC(C)C)nc1C > 76.9 µM
COC(=O)CSc1nnc(CNC(=O)c2ccccc2OC)n1-c1ccc(OC)cc1 > 76.9 µM
COCCN(CC(=O)Nc1ccccc1C)S(=O)(=O)c1ccc(S(=O)(=O)N2CCCC2)cc1 > 76.9 µM
O=c1[nH]c2cc3c(cc2cc1CN(Cc1ccccc1)Cc1nnnn1Cc1ccco1)OCCO3 > 76.9 µM
